Assay results taken from the supplement of paper PMC10037445.
Several values for one entry are separate records, joined by “and”; a condition that tells them apart may be missing. Identical values can stand only once. Over roughly 2,900 compounds, “IRF Lucia reporter activity, fold change vs agonist alone” has its median near 0.9; the highest 2% begin near 2.8. The list shows a part of the results.

Tests used:
[1] = test system: RAW-Dual; assay: IRF Lucia reporter activity, fold change vs agonist alone; higher = enhanced IRF activity; details: agonist: MPLA (TLR4) […]
How it was run: (§1)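 RAW-Dual macrophages (50,000 cells/well in DMEM, 384-well plates) received 50 nL of library stock by pin tool, then a PRR agonist 1 h later, and were kept at 37 °C, 5% CO2. After 20 hours, supernatant was read for IRF by QuantiLuc luminescence and for NF-κB by QuantiBlue absorbance at 620 nm. Reporter activity is fold change over agonist-alone wells. Cytotoxic wells had IncuCyte confluency below 70% of agonist controls in both mask sets.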

[2] = test system: RAW-Dual; assay: IRF Lucia reporter activity, fold change vs agonist alone; cytotoxicity flag (confluency mask): not cytotoxic; higher = enhanced IRF activity
How it was run: as §1

[3] = test system: RAW-Dual; assay: IRF Lucia reporter activity, fold change vs agonist alone; cytotoxicity flag (confluency mask): cytotoxic (confluency <70% of control); higher = enhanced IRF activity
How it was run: as §1

[4] = library stock concentration (final ~1000-fold dilution): 10 mM, cytotoxicity flag (confluency mask): not cytotoxic
[5] = agonist: 3'3'-cGAMP (STING) 10 ug/mL
[6] = library stock concentration (final ~1000-fold dilution): 10 mM, cytotoxicity flag (confluency mask): cytotoxic (confluency <70% of control)

Q: For `O=c1cc(-c2ccc(O)cc2)oc2cc(O)cc(O)c12`, which “IRF Lucia reporter activity” value [1, 4] is on record?
A: 0.323

Q: How did the “IRF Lucia reporter activity” value [2, 5] turn out when `O=c1cc(-c2ccc(O)cc2)oc2cc(O)cc(O)c12` (library stock concentration (final ~1000-fold dilution): 10 mM) was run?
A: 0.322

Q: What about the “IRF Lucia reporter activity” value ([2]; agonist: LPS (TLR4) 0.1 ug/mL) of the same molecule?
A: 0.154

Q: Which “IRF Lucia reporter activity” value [2, 5] does the source give for `O=C(O)C1=C/C(=N\Nc2ccc(S(=O)(=O)Nc3ccccn3)cc2)C=CC1=O` (library stock concentration (final ~1000-fold dilution): 10 mM) here?
A: 0.605

Q: And the “IRF Lucia reporter activity” value ([2]; agonist: LPS (TLR4) 0.1 ug/mL)?
A: 0.717

Q: For `COC(=O)CC1CC(c2ccc(O)cc2)=NO1` (configuration not stated) (library stock concentration (final ~1000-fold dilution): 10 mM), which “IRF Lucia reporter activity” value [2, 5] is on record?
A: 1.02

Q: What about the “IRF Lucia reporter activity” value ([2]; agonist: LPS (TLR4) 0.1 ug/mL) of the same molecule?
A: 0.978

Q: `COc1ccc(S(=O)(=O)N(CCO)c2ccccc2CN(C)CC=Cc2ccc(Cl)cc2)cc1` (library stock concentration (final ~1000-fold dilution): 10 mM) was tested. Which “IRF Lucia reporter activity” value [2, 5] did it give?
A: 0.178

Q: What about the “IRF Lucia reporter activity” value ([2]; agonist: LPS (TLR4) 0.1 ug/mL) of the same molecule?
A: 0.924

Q: Which “IRF Lucia reporter activity” value [1, 4] does the source give for `COc1ccc(S(=O)(=O)N(CCO)c2ccccc2CN(C)CC=Cc2ccc(Cl)cc2)cc1` here?
A: 1.27

Q: For `CC(C)CNc1ccnc(NCc2csc(-c3ccccc3)n2)n1.Cl`, which “IRF Lucia reporter activity” value [1, 6] is on record?
A: 2.05

Q: With `CC(C)CNc1ccnc(NCc2csc(-c3ccccc3)n2)n1.Cl` (library stock concentration (final ~1000-fold dilution): 10 mM) as the molecule, how does the “IRF Lucia reporter activity” value [3, 5] read?
A: 0.669

Q: What about the “IRF Lucia reporter activity” value ([3]; agonist: LPS (TLR4) 0.1 ug/mL) of the same molecule?
A: 1.38

Q: How did the “IRF Lucia reporter activity” value [1, 4] turn out when `Cl.Clc1ccc(CCCOCCCN2CCCCC2)cc1` was run?
A: 1.29

Q: `Cl.Clc1ccc(CCCOCCCN2CCCCC2)cc1` (library stock concentration (final ~1000-fold dilution): 10 mM) was tested. Which “IRF Lucia reporter activity” value [2, 5] did it give?
A: 0.779

Q: What about the “IRF Lucia reporter activity” value ([2]; agonist: LPS (TLR4) 0.1 ug/mL) of the same molecule?
A: 1.2

Q: For `COc1ccc(-c2cc(=O)c3c(O)cc(O)cc3o2)cc1O` (library stock concentration (final ~1000-fold dilution): 10 mM), which “IRF Lucia reporter activity” value [2, 5] is on record?
A: 0.374

Q: And the “IRF Lucia reporter activity” value ([2]; agonist: LPS (TLR4) 0.1 ug/mL)?
A: 0.116

Q: How did the “IRF Lucia reporter activity” value [1, 4] turn out when `COc1ccc(-c2cc(=O)c3c(O)cc(O)cc3o2)cc1O` was run?
A: 0.235

Q: Which results are given for `Cc1cc2c(F)c(Oc3ncnn4cc(OCC(C)O)c(C)c34)ccc2[nH]1` (configuration not stated) (library stock concentration (final ~1000-fold dilution): 10 mM)?
A: IRF Lucia reporter activity [2, 5]: 1.01; IRF Lucia reporter activity ([2]; agonist: LPS (TLR4) 0.1 ug/mL): 1.75

Q: Which “IRF Lucia reporter activity” value [1, 4] does the source give for `Cc1cc2c(F)c(Oc3ncnn4cc(OCC(C)O)c(C)c34)ccc2[nH]1` (configuration not stated) here?
A: 1.93

Q: What does the source list for `CC1(C)CC(=O)c2c(C(F)(F)F)nn(-c3ccc(C(N)=O)c(NC4CCC(OC(=O)CN)CC4)c3)c2C1` (configuration not stated) (library stock concentration (final ~1000-fold dilution): 10 mM)?
A: IRF Lucia reporter activity [2, 5]: 0.971; IRF Lucia reporter activity ([2]; agonist: LPS (TLR4) 0.1 ug/mL): 0.739

Q: `CC1(C)CC(=O)c2c(C(F)(F)F)nn(-c3ccc(C(N)=O)c(NC4CCC(OC(=O)CN)CC4)c3)c2C1` (configuration not stated) was tested. Which “IRF Lucia reporter activity” value [1, 4] did it give?
A: 1.06

Q: For `CC(NC(=O)/C(C#N)=C/c1cccc(Br)n1)c1ccccc1` (configuration not stated) (library stock concentration (final ~1000-fold dilution): 10 mM), which “IRF Lucia reporter activity” value [3, 5] is on record?
A: 0.0208

Q: And the “IRF Lucia reporter activity” value ([3]; agonist: LPS (TLR4) 0.1 ug/mL)?
A: 0.0182

Q: `CC(NC(=O)/C(C#N)=C/c1cccc(Br)n1)c1ccccc1` (configuration not stated) was tested. Which “IRF Lucia reporter activity” value [1, 6] did it give?
A: 0.0244

Q: Which “IRF Lucia reporter activity” value [2, 5] does the source give for `CCN(CC)CCNC(=O)c1cc(S(C)(=O)=O)ccc1OC.Cl` (library stock concentration (final ~1000-fold dilution): 10 mM) here?
A: 1.03

Q: What about the “IRF Lucia reporter activity” value ([2]; agonist: LPS (TLR4) 0.1 ug/mL) of the same molecule?
A: 0.987

Q: `Cc1c(OCC(F)(F)F)ccnc1CS(=O)c1nc2ccccc2[nH]1` (configuration not stated) was tested. Which “IRF Lucia reporter activity” value [1, 4] did it give?
A: 0.994

Q: `Cc1c(OCC(F)(F)F)ccnc1CS(=O)c1nc2ccccc2[nH]1` (configuration not stated) (library stock concentration (final ~1000-fold dilution): 10 mM) was tested. Which “IRF Lucia reporter activity” value [2, 5] did it give?
A: 0.715

Q: And the “IRF Lucia reporter activity” value ([2]; agonist: LPS (TLR4) 0.1 ug/mL)?
A: 0.834

Q: `CC(C)(C)N.CCCC(NC(C)C(=O)N1C(C(=O)O)CC2CCCCC21)C(=O)OCC` (configuration not stated) (library stock concentration (final ~1000-fold dilution): 10 mM water) was tested. Which “IRF Lucia reporter activity” value [2, 5] did it give?
A: 1.03

Q: And the “IRF Lucia reporter activity” value ([2]; agonist: LPS (TLR4) 0.1 ug/mL)?
A: 0.833

Q: How did the “IRF Lucia reporter activity” value ([1]; library stock concentration (final ~1000-fold dilution): 10 mM water, cytotoxicity flag (confluency mask): not cytotoxic) turn out when `CC(C)(C)N.CCCC(NC(C)C(=O)N1C(C(=O)O)CC2CCCCC21)C(=O)OCC` (configuration not stated) was run?
A: 1.32

Q: `CN1CCc2cc3c(cc2C(=O)Cc2ccc4c(c2C1)OCO4)OCO3` was tested. Which “IRF Lucia reporter activity” value [1, 4] did it give?
A: 1.11

Q: Which results are given for `CN1CCc2cc3c(cc2C(=O)Cc2ccc4c(c2C1)OCO4)OCO3` (library stock concentration (final ~1000-fold dilution): 10 mM)?
A: IRF Lucia reporter activity [2, 5]: 1.04 and 0.775; IRF Lucia reporter activity ([2]; agonist: LPS (TLR4) 0.1 ug/mL): 1.2 and 1.22

Q: Which “IRF Lucia reporter activity” value [3, 5] does the source give for `C=CC(=O)Nc1cc(C)ccc1Nc1nc(Nc2cc(OC)ncc2C)ncc1C(F)(F)F` (library stock concentration (final ~1000-fold dilution): 10 mM) here?
A: 0.056

Q: What about the “IRF Lucia reporter activity” value ([3]; agonist: LPS (TLR4) 0.1 ug/mL) of the same molecule?
A: 0.0167

Q: `Cl.N=C(N)NC(=O)c1nc(Cl)c(N)nc1N` (library stock concentration (final ~1000-fold dilution): 10 mM) was tested. Which “IRF Lucia reporter activity” value [2, 5] did it give?
A: 1.17

Q: What about the “IRF Lucia reporter activity” value ([2]; agonist: LPS (TLR4) 0.1 ug/mL) of the same molecule?
A: 0.9

Q: How did the “IRF Lucia reporter activity” value [1, 4] turn out when `Cl.N=C(N)NC(=O)c1nc(Cl)c(N)nc1N` was run?
A: 0.879

Q: Which “IRF Lucia reporter activity” value [2, 5] does the source give for `O=C(NCCS(=O)(=O)c1ccc(C(F)(F)F)cn1)c1ccc(Cl)cc1` (library stock concentration (final ~1000-fold dilution): 10 mM) here?
A: 0.893

Q: What about the “IRF Lucia reporter activity” value ([2]; agonist: LPS (TLR4) 0.1 ug/mL) of the same molecule?
A: 1.14

Q: How did the “IRF Lucia reporter activity” value [2, 5] turn out when `CC(C)CC(=O)Nc1n[nH]c2c1CN(C(=O)C1CCN(C)CC1)C2(C)C` (library stock concentration (final ~1000-fold dilution): 10 mM) was run?
A: 0.402

Q: And the “IRF Lucia reporter activity” value ([2]; agonist: LPS (TLR4) 0.1 ug/mL)?
A: 0.269

Q: With `CC(C)CC(=O)Nc1n[nH]c2c1CN(C(=O)C1CCN(C)CC1)C2(C)C` as the molecule, how does the “IRF Lucia reporter activity” value [1, 4] read?
A: 0.11

Q: `CC(C)=CCC[C@](C)(O)[C@@H]1CC[C@]2(C)C3CCC4C(C)(C)C(O[C@@H]5O[C@H](CO)[C@@H](O)[C@H](O)[C@H]5O[C@@H]5O[C@H](CO)[C@@H](O)[C@H](CO)[C@H]5O)CC[C@]4(C)C3C[C@H](O)[C@H]12` (some centres not stated) (library stock concentration (final ~1000-fold dilution): 10 mM) was tested. Which “IRF Lucia reporter activity” value [2, 5] did it give?
A: 0.835

Q: And the “IRF Lucia reporter activity” value ([2]; agonist: LPS (TLR4) 0.1 ug/mL)?
A: 0.965

Q: How did the “IRF Lucia reporter activity” value [2, 5] turn out when `Cc1ccc(C(=O)N(CCCN)C(c2oc3cc(Cl)ccc3c(=O)c2Cc2ccccc2)C(C)C)cc1.Cl` (configuration not stated) (library stock concentration (final ~1000-fold dilution): 10 mM) was run?
A: 1.01

Q: And the “IRF Lucia reporter activity” value ([2]; agonist: LPS (TLR4) 0.1 ug/mL)?
A: 0.0205

Q: `Cc1ccc(C(=O)N(CCCN)C(c2oc3cc(Cl)ccc3c(=O)c2Cc2ccccc2)C(C)C)cc1.Cl` (configuration not stated) was tested. Which “IRF Lucia reporter activity” value [1, 4] did it give?
A: 1.11

Q: Which “IRF Lucia reporter activity” value [1, 4] does the source give for `O=C(O)c1ccc(Br)c(O)c1` here?
A: 1.07

Q: `O=C(O)c1ccc(Br)c(O)c1` (library stock concentration (final ~1000-fold dilution): 10 mM) was tested. Which “IRF Lucia reporter activity” value [2, 5] did it give?
A: 1.03

Q: What about the “IRF Lucia reporter activity” value ([2]; agonist: LPS (TLR4) 0.1 ug/mL) of the same molecule?
A: 1.4
